# This is one part of the list.
# T1: UNK ZnF1-3 (human, UniProt Q9C0B0 31-174)
# T1 sequence: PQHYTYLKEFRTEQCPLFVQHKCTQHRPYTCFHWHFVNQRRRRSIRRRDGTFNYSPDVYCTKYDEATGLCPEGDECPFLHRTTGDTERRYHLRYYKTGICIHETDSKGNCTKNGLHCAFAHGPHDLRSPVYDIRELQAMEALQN
# B1: chr11:18503389:18503390:-_ENSG00000074319_ENST00000251968|hu_hu|hu_hu_hu_mus_True|38_48 (ssRNA)
# RNA: GGGAGUUCUACAGUCCGACGAUCAUUUUCCAUUUUCUCCAGAGCAGAACUUAGUUCUUCAUCCUUCUUUUUCAAAAGUUCUAUGUUUUUAUCAACCUCGGCUACUUCUUGAUCUAAGCGGGUGACCAUCUCUUCCAGUUUCUGCAACAGAGGAUUGAGCAUCA
# B2: 57373685_57373999_930_CDS_ENSG00000149131_ENST00000378324|human|control|control (ssRNA)
# RNA: GGGAGUUCUACAGUCCGACGAUCAAUGAAAUGGGCCACAGGGUACUUCUUGCUAUUCAUCAUGGGCACUUUUAUAACUGAGUUUUUGAAGUGAAAGGGUUCCAUUCUGGUUUUCUUGGGAUCAAAUGUUGUCUUCCACUUGGCCAACAGAGGAUUGAGCAUCA
# B3: chr5:61681977:61681978:+_ENSG00000068796_ENST00000381103|hu_hu|motif|central (ssRNA)
# RNA: GGGAGUUCUACAGUCCGACGAUCCCACUGUCACAGACUUUAGUUCCGUUCAAUGAUAUGGCACAUCCUGCAAAAUUAACGGGUCACACACAAAAAAUGUCUCAAAUACAGUAAAAAUGUACACACAAAGGUAAUUUACAAUGACAACAGAGGAUUGAGCAUCA
# B4: chr11:118894041:118894042:+_ENSG00000196655_ENST00000359005|hu_mus|FALSE|FALSE (ssRNA)
# RNA: GGGAGUUCUACAGUCCGACGAUCAGGUUCAUCCUAUGACCCAGGUCCAAAAGUGCCAGCCUUCUCUGCCACCUCUAGAGCUAGCUUCAGGUUUUGAUCAAACAGCUCGCAUCUGAUAGGCAUUUCCAAGGAGUAGAAUGGAUUCAACAGAGGAUUGAGCAUCA
# B5: chr5:21408736:21408737:-_ENSMUSG00000042453_ENSMUST00000161356|mus_hu|mus_mus_mus_hu_False|8_78 (ssRNA)
# RNA: GGGAGUUCUACAGUCCGACGAUCGUUGACAGAGUUGUAGAUGGUGGCUUCAUGGAACUGGAACGGGGAGCAGCCAAUGCUGUUAGAAGAGGAAGGAAGGCACUGGGUCUGUACGAGCUGCCAGGAAUCGGACCUUGCAUCCUUCAACAGAGGAUUGAGCAUCA
# B6: chr2:55200753:55200754:-_ENSG00000115310_ENST00000317610|hu_hu|FALSE|FALSE (ssRNA)
# RNA: GGGAGUUCUACAGUCCGACGAUCUUGGAUUUUAGCCAUAGCAUCUUUAACAUUCUUAUUUGCAAGUCCUAGAUAAUGAUCUAUCUGUGCCUGAUGCCGUUCAUAAAUAACAGGAACACUGAAGAGUGAAAUGAGAGCCAAAAUCAACAGAGGAUUGAGCAUCA
# B7: chr16:94690093:94690094:+_ENSMUSG00000040785_ENSMUST00000117648|mus_hu|mus_mus_mus_hu_True|98_108 (ssRNA)
# RNA: GGGAGUUCUACAGUCCGACGAUCGGGGACUCCUGUGAGCAGACAGCCCUCGAUUCCAGGGGGAAAAAGUCUUAGUCGAUACUAAUUAAAAAGUGUUAAUGAUUUUUGAAAAUCAGAUUACAUCUAUAAAAGAUGAAAAGCAAACAACAGAGGAUUGAGCAUCA
# B8: chr5:133537698:133537699:-_ENSG00000113575_ENST00000481195|hu_mus|motif|central (ssRNA)
# RNA: GGGAGUUCUACAGUCCGACGAUCGCUCUCGUGAUUCCCUCGGAGUAUGGUGAUGCGCUCUCGGUAACGAACCUUAAGAGCGGCAAGCAGUGUAACUGUUUCAACAGAGUAAUAUCCUCUGUCCACAUAGUCUCCCAUAAACAGCAACAGAGGAUUGAGCAUCA
# B9: chr16:45382771:45382772:-_ENSMUSG00000022661_ENSMUST00000163230|mus_mus|mus_mus_mus_hu_True|58_68 (ssRNA)
# RNA: GGGAGUUCUACAGUCCGACGAUCCUGGGUCAUGUUAUAAGACAAAUGGACAGGGAGGGCAUGCUUCUGUAAAGAUGUGAACUACUCUCUAAGACUAACAAUAUUUAUCUAGCUAUAAAAAUAAGUUAAAUGAAUAAGUUAAGACAACAGAGGAUUGAGCAUCA
# B10: 118506678_118506798_6332_CDS_ENSG00000172869_ENST00000311085|human|control|control (ssRNA)
# RNA: GGGAGUUCUACAGUCCGACGAUCAGGCAAAUCUUCAGCAUCCUCAUUUAAUCCAAAUUCAUCUUCAUUUCUGCCAAAUGCAGACUGUAGUUCUUCAGCAUCUGAGCAAAAGUCACAAGUCCUCUGAAGAGCUAUCACCUCUUUCAACAGAGGAUUGAGCAUCA
# B11: chr4:25749455:25749456:-_ENSG00000091490_ENST00000264868|hu_hu|hu_hu_hu_mus_False|1_58 (ssRNA)
# RNA: GGGAGUUCUACAGUCCGACGAUCGCACUAUGACCUCUAGAAAAAUCCACAGGGGGAAAAAAUGUAAACCAAUGUACAAAGCUAUUGCCUUCCCUGUGUGUGGAGUGUUUGUCUCAAGGCUCCUUCUAGCUGCUGGACUGCUAGCAACAGAGGAUUGAGCAUCA
# B12: chr14:66974463:66974464:+_ENSMUSG00000022044_ENSMUST00000074523|mus_hu|mus_mus_mus_hu_False|58_68 (ssRNA)
# RNA: GGGAGUUCUACAGUCCGACGAUCUUGUAGGACGACUUAUUCAGGGGAUCGGCCAGGAAGCAGGAGCAGAACAGAGACACUAGUGGGAGCUCCUUCAUCUUCUCUUUGUAGGCAGCAAGGGUCAUGUUUCUGGGAUCUGGUGGCCAACAGAGGAUUGAGCAUCA
# B13: 11078906_11080581_693_CDS_ENSG00000120948_ENST00000240185|human|control|control (ssRNA)
# RNA: GGGAGUUCUACAGUCCGACGAUCCUGAGAGAAGAACUCCCGCAGCUCAUCCUCAGUCAUGUCCUCUGUACAGCGCCCCACAAACACUUUUCUGCUUCUCAAAGGCUCAUCUUGGCUUUGCUUAGAAUUAGGAAGUUUGCAGUCCAACAGAGGAUUGAGCAUCA
# B14: chr2:216981417:216981418:+_ENSG00000079246_ENST00000392132|hu_hu|hu_hu_hu_mus_True|18_68 (ssRNA)
# RNA: GGGAGUUCUACAGUCCGACGAUCCUGAUACUGGUCCUUGCCAGCAAGGGCAUUAUCAGUGCCAUCUGUACCAAACAGGACUAACGCAAUCUCAUCUUUGCUCUCCGAAAAUACCUGUCGCUGUACAAACAUAGUCAUCACUUUCAACAGAGGAUUGAGCAUCA
# Target: T1, UNK ZnF1-3
# Experiment: nsRBNS (natural sequence RNA bind-n-seq); RBNS binding buffer (assumed for nsRBNS): 25 mM Tris pH 7.5, 150 mM KCl, 3 mM MgCl2, 0.01% Triton X-100, 500 ug/ml BSA, 20 U/ml SUPERase-In, 4 C; UNK is unkempt and MSI1 is Musashi-1; names of the RNAs are library labels; protein concentration not given here; high values mean tight binding
row,Binder,binding signal [enrichment R]
1,B1,0.432
2,B2,0.906
3,B3,1.38
4,B4,1.2
5,B5,1.53
6,B6,1.44
7,B7,1.3
8,B8,0.972
9,B9,1.51
10,B10,0.876
11,B11,0.988
12,B12,2.24
13,B13,0.918
14,B14,0.757
